Measured values taken from PubChem BioAssay AID463173 (ICCB-Longwood Screening Facility, Harvard Medical School, 2010).
Screen size: about 52,000 compounds; about 1,700 (3.3%) were called active. No stated cut-off is given here; in the data, active means survival mostly below about 52% (no sharp cut-off); inactive means mostly above about 56%. This is one part of the list.

Each compound was assayed on Wild type (assay: growth inhibition of S. aureus wild type versus tarO mutant, primary screen, teichoic acid synthesis inhibitors, RN4220, OD600 (AID 463173)). Conditions: S. aureus RN4220 wild type/DeltatarO growth, OD600, 18 h, stronger effect = lower value, screened at 18.75 µg/mL (by protocol).
`COc1ccc(C)c2sc(NC(=O)c3ccc(S(=O)(=O)N(C)C)cc3)nc12` was tested, and the survival was inactive: 81%.
In the case of `CCOc1ccc(CNC(=O)c2oc3c(c2C)-c2nn(Cc4cccc(Cl)c4)cc2CC3)cc1`, the survival was inactive: 82%.
For `CCOC(=O)C1CCN(C(=O)c2cc3sc(C)cc3n2C)CC1`, the survival was inactive: 89%.
With `CCCCN(CC)C(=O)CSc1nc2n[nH]c(C)c2c(=N)n1-c1ccc(CC)cc1` the survival was inactive: 120%.
`CCOc1ccc(-c2cccc(NS(=O)(=O)c3ccc(C)s3)c2)nn1` was tested, and the survival was inactive: 89%.
With `O=C(CN1C(=O)C2CCc3[nH]c4ccccc4c3C2C1=O)N1CCCC1` (centres undefined) the survival was inactive: 110%.
For `COCCCn1c(=O)c2sccc2n2c(CCCC(=O)NCc3cccc(OC)c3)nnc12`, the survival was inactive: 98%.
For `COc1ccc(NC(=O)CSc2ncc3c(n2)-c2ccccc2N(Cc2ccc(C)cc2)S3(=O)=O)cc1Cl`, the survival was inactive: 134%.
`Cc1ccc(N(C)C(=O)c2sc3nc4n(c(=O)c3c2C)CCCC4)cc1C` was tested, and the survival was inactive: 78%.
`CCOC(=O)C1CCC(CN(Cc2ccc(Cl)cc2)S(=O)(=O)c2cccc(Cl)c2C)CC1` (centres undefined) was tested, and the survival was inactive: 82%.
In the case of `Cc1nc2nc(NC(=O)c3ccc(C(C)(C)C)cc3)[nH]n2c(=O)c1C`, the survival was inactive: 87%.
For `CCCCOc1ccc(C(=O)Nc2ccc3c(c2)CCCN3C(=O)c2cccs2)cc1`, the survival was inactive: 84%.
`CCN1C(=O)c2ccccc2S(=O)(=O)c2ccc(C(=O)NCc3ccccc3)cc21` was tested, and the survival was inactive: 84%.
`O=C(CSc1ncc(-c2ccccc2)[nH]1)Nc1ccccc1` was tested, and the survival was inactive: 71%.
In the case of `CCOc1ccc(NS(=O)(=O)c2c(C)nc3sc(C)c(C)n3c2=O)cc1`, the survival was inactive: 89%.
With `CCOC(=O)C1CCN(C(=O)c2ccccc2NC(=O)c2nsc3ccccc23)CC1` the survival was inactive: 121%.
For `O=C(Cn1cnc2ccccc2c1=O)NCc1ccccc1`, the survival was inactive: 105%.
With `O=C(CCC1N=C2c3ccccc3N=C(SCC(=O)Nc3cccc(Cl)c3)N2C1=O)NCc1ccco1` (centres undefined) the survival was inactive: 63%.
In the case of `CC1CCc2c(nc3ncnn3c2NCCc2ccccc2F)C1` (centres undefined), the survival was inactive: 108%.
For `CC(C)N(Cc1ccccc1)C(=O)c1nc(-c2ccc(Cl)cc2)n2c1CCCCC2`, the survival was inactive: 115%.
For `CCc1ccc(OCC2c3cc(OC)c(OC)cc3CCN2C(=O)c2ccc(S(=O)(=O)N3CCCC3)cc2)cc1` (centres undefined), the survival was inactive: 68%.
For `CCOC(=O)c1cnc2c(ccc3ccccc32)c1Nc1ccc(N(C)C)cc1`, the survival was active: 0%.
`CCn1cc(C(=O)NCCCOC(C)C)c(=O)c2cc(S(=O)(=O)N3CCOCC3)ccc21` was tested, and the survival was inactive: 131%.
In the case of `COc1cccc(NC(=O)c2c(C)nn(-c3cccc(C)c3)c2-n2cccc2)c1`, the survival was active: 0%.
For `COc1cccc(CN2C(=O)CN(C3CCCCC3)C(=O)C2c2ccc(OC(C)C)c(OC)c2)c1` (centres undefined), the survival was inactive: 89%.
With `O=C(Cn1ccc2cc(S(=O)(=O)N3CCCCCC3)ccc21)NCc1ccccc1Cl` the survival was inactive: 73%.
In the case of `Cc1cc(NC(=O)N2CCC(CN3CCCCCC3)CC2)ccc1Br`, the survival was inactive: 77%.
For `COC(=O)c1ccc2c(=O)n(CCCCCC(=O)NCCc3ccccc3)c(=O)[nH]c2c1`, the survival was inactive: 127%.
With `N#Cc1ccc(-c2cccnc2)n(CC(=O)N2CC(=O)Nc3ccccc32)c1=O` the survival was inactive: 119%.
In the case of `N#Cc1ccc(C=Nc2ccc(C(N)=O)cc2)cc1`, the survival was inactive: 102%.
For `O=S(=O)(c1ccc(Cl)cc1)c1nnn2c1nc(NC1CCCC1)c1sccc12`, the survival was inactive: 79%.
With `CCC1Sc2ccccc2N(CC(=O)NCc2ccc(C)cc2)C1=O` (centres undefined) the survival was inactive: 79%.
`COc1ccc(-c2nc(Cn3c(=O)cc(C)c4c(C)nn(-c5ccccc5)c43)c(C)o2)cc1OC` was tested, and the survival was inactive: 133%.
`Cc1ccc(C(=O)Cn2c(-c3ccccc3)noc2=O)cc1` was tested, and the survival was inactive: 126%.
With `Nc1c(C(=O)Nc2ccccc2Br)sc2nc(-c3cccs3)ccc12` the survival was inactive: 67%.
In the case of `O=C(CSc1nc2c([nH]c3ccccc32)c(=O)n1-c1ccccc1)Nc1ccc2c(c1)OCO2`, the survival was inactive: 123%.
`Cc1noc2ncnc(N3CCN(c4cccc(C(F)(F)F)c4)CC3)c12` was tested, and the survival was inactive: 70%.
In the case of `Cc1cccn2c(=O)c3cc(C(=O)NCC(C)C)sc3nc12`, the survival was inactive: 80%.
In the case of `COc1ccc(N2CCN(C(CNS(=O)(=O)c3ccc(OC)c(C)c3)c3ccco3)CC2)cc1` (centres undefined), the survival was inactive: 71%.
In the case of `COc1ccc(C)cc1-n1c(-c2ccc(Cl)cc2)cc2c1CC(C)(C)CC2=O`, the survival was inactive: 94%.
With `Fc1ccc(CN2CCc3nc(N4CCN(c5ccccc5F)CC4)ncc3C2)c(F)c1` the survival was inactive: 73%.
In the case of `CC(C)CNS(=O)(=O)c1ccc(S(=O)(=O)N2CCN(c3ccccc3)CC2)cc1`, the survival was inactive: 104%.
In the case of `Cc1ccc(NC(=O)Cn2c(=O)n(-c3ccc(C)cc3)c(=O)c3c2cnn3C)cc1`, the survival was inactive: 68%.
In the case of `Cc1ccc(Cc2nc3ccccc3nc2SCC(=O)N2CCC(C)CC2)cc1`, the survival was inactive: 77%.
